Among all 48,000 compounds or so, about 450 (0.94%) were called active. Inconclusive results (about 19%) are left out. Calls come from the whole dose curve; as a rule, active = well fitted inhibition curve with a large enough effect; inconclusive = small, poorly fitted or top-dose-only effect; inactive = no such curve, though single readings can be large or run the other way. Some of the results follow.
test: Primary qHTS for Identification of Small Molecule Inhibitors of Huntingtin Promoter Activity; conditions: HEK293 HTT promoter firefly luciferase reporter (activity 0% = vehicle and -100% = no light), 24 h; series mostly up to 57.5 µM; activity change, negative = inhibition: at the top concentration; note: nearly all actives have a fitted effect of over 50% in size
How it was run: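 HEK293 Fluc reporter, 2,500 cells/well, 24 h pre-culture; cpds up to 57.5 uM final, 24 h 37 degrees C; Dual-Glo, 10 min RT; normalized vehicle = 0%, zero RLU = -100%.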

| SMILES | activity change, negative = inhibition |
| --- | --- |
| CCOC(=O)c1c(NC(=O)c2cc3nc(-c4ccccc4)cc(C(F)(F)F)n3n2)sc2c1CCC(C)C2 (stereo not drawn) | inactive: -16.2% |
| CCCNC(=O)c1cnc2sc(N3CCCCCC3)nn2c1=O | inactive: 19.9% |
| CCOc1ccc(C(=O)Nc2ccccc2OCc2cc(=O)n3ccccc3n2)cc1 | inactive: -6.14% |
| COc1ccccc1OCCCCn1c(-c2ccc(Cl)cc2)nc2ccccc2c1=O | inactive: -9.22% |
| CCOC(=O)N1CCC(=C2c3ccc(Cl)cc3CCc3cccnc32)CC1 | inactive: 9.07% |
| CCOC(=O)Cn1c(=O)n(-c2ccccc2OC)c2nc(-c3ccccc3F)nc(C(N)=O)c21 | inactive: -14.8% |
| CN(C)c1ccc(C(=O)Nc2cccc(-c3nc4cccnc4s3)c2)cc1 | inactive: -0.225% |
| Cc1ccc(CCNC(=O)c2cc(C)nc3c2c(C)nn3-c2ccc(C)cc2)cc1 | inactive: -6.1% |
| COc1cccc(Cn2c(SCC(=O)N(C)c3ccccc3)nc3ccccc32)c1 | inactive: -2.28% |
| COc1cccc2cc(-c3csc(-c4ccc(Cl)cc4)n3)c(=O)oc12 | inactive: -5.15% |
| Cc1ccccc1CNC(=O)c1ccc(CSc2nc3cccnc3n2Cc2ccccc2)cc1 | inactive: -30.3% |
| COC(=O)c1ccc(Cn2c(SCc3ccccc3)nc3ccncc32)cc1 | inactive: -2.06% |
| CCc1ccc(-n2nc(C)c3c(C(=O)Nc4cc(C)c(Cl)cc4OC)cc(C)nc32)cc1 | inactive: -3.44% |
| CCc1ccc(-c2nn(CC(=O)NCc3ccccc3)c3c2cnc2ccc(C)cc23)cc1 | inactive: 0% |
| CC(C)c1ccc(NC(=O)CCS(=O)(=O)c2cccc3nonc23)cc1 | inactive: -13.9% |
| Cc1ccc(CCNC(=O)c2ccc(CNS(=O)(=O)c3ccccc3)cc2)cc1 | inactive: -33% |
| O=C(CN1CCSc2ccccc21)N1CCCCC1 | inactive: -12.6% |
| CCOc1ccccc1NC(=O)Cn1c(=O)n(-c2ccc(F)cc2)c(=O)c2c3c(sc21)CN(C(C)=O)CC3 | inactive: -5.77% |
| CC(=O)Nc1ccc(NC(=O)c2cc3sccc3n2Cc2ccc(Cl)cc2)cc1 | inactive: -23.6% |
| COc1cc(NC(=O)Cn2cnc3c2c(=O)n(C)c(=O)n3C)c(OC)cc1Cl | inactive: -5.62% |
| CCOC(=O)c1c(NC(=O)/C(C#N)=C/c2ccccc2)sc2c1CCC2 | inactive: -6.86% |
| Cc1cc(C)cc(NC(=O)Nc2ccccc2OCc2cc(=O)n3ccccc3n2)c1 | inactive: 12.3% |
| CCOc1ccc(NC(=O)c2c(NC(=O)c3ccccc3F)sc3c2CCC3)cc1 | inactive: -16.6% [at 11.5 µM] |
| CCOc1cc(/C=C(\C#N)C(=O)Nc2ccc(C)cc2)ccc1OCc1cc(=O)n2nc(CC)sc2n1 | inactive: -5.16% |

| SMILES | activity change, negative = inhibition |
| --- | --- |
| COc1cccc2c1Oc1ncccc1N(C(=O)CCC(=O)NC(C)C)C2 | inactive: -5.82% |
| CCc1c(C)sc2c1CCN(C(=O)Nc1cc(Cl)c(OC)cc1OC)C2c1ccccc1 (stereo not drawn) | inactive: -31.6% |
| COc1ccc2c(c1)CC(C(=O)NCCCN1CCN(c3ccccc3F)CC1)CO2 (stereo not drawn) | inactive: -23.9% |
| C#CCn1cnc2c(cnn2-c2ccc(F)cc2)c1=O | inactive: -16.3% |
| CCC(=O)N1CCc2cc(Br)cc(S(=O)(=O)CCC(=O)Nc3ccc(C)c(F)c3)c21 | inactive: -5.09% |
| O=C(NOCC1CC1)c1ccc(F)c(F)c1Nc1ccc(I)cc1Cl | inactive: -20.2% |
| CCn1c(C)c(C)c2cc(C(=O)NCc3ccc(OC)cc3OC)ccc21 | inactive: 1.8% |
| CCN(CC)S(=O)(=O)c1ccc(NC(=O)c2c(C)oc3ncnc(N4CCOCC4)c23)cc1 | inactive: -8.84% |
| COc1ccc(Cl)cc1NC(=O)c1cnc(SC)nc1-c1ccccc1 | inactive: -22.2% |
| Cc1ccccc1NC(=O)C(=O)NCC1(c2ccccc2)CCCC1 | inactive: -14.4% |
| CCN1CCN(c2ncc3c(n2)CCN(Cc2sccc2C)C3)CC1 | inactive: -13.6% |
| O=C(CSc1nnc2scc(-c3ccc(Cl)cc3)n12)Nc1cccc(C(F)(F)F)c1 | inactive: -24.3% |
| COc1cc(NC(=O)CC(C)S(=O)(=O)c2ccc3c(c2)CCN3C(C)=O)cc(OC)c1OC (stereo not drawn) | inactive: -6.44% |
| Cc1ccc(NC(=O)CN(C)S(=O)(=O)c2cccc3cccnc23)cc1F | inactive: -21.7% |
| COc1ccc(Cl)cc1Nc1nc2ccc(C(=O)c3ccccc3)cc2n2cnnc12 | inactive: 44.1% |
| CN(CC(=O)Nc1ccc(Cl)cc1F)S(=O)(=O)c1ccc2c(c1)n(C)c(=O)c(=O)n2C | inactive: -20% |
| CCc1ccc(C(c2ccccc2)c2c[nH]c3ccc(C)cc23)s1 (stereo not drawn) | inactive: 11.6% |
| Cc1sc2ncn(CC(=O)N3CCN(c4ccccc4)CC3)c(=O)c2c1S(=O)(=O)N1CCN(c2ncccn2)CC1 | inactive: -13% |
| CC(C(=O)O)c1ccc(CC2CCCC2=O)cc1 (stereo not drawn) | inactive: -2.54% |
| Nc1ncnc2c1ncn2Cc1c(F)cccc1Cl | inactive: -5.34% |
| Cc1ccc(NC(=O)c2cccc(N3CCCS3(=O)=O)c2)cc1C | inactive: 51.9% |
| Cc1ccc(NC(=O)[C@H]2O[C@@H]3OC(C)(C)O[C@@H]3[C@H]3OC(C)(C)O[C@H]32)cc1F | inactive: -0.072% |
| CC(C(=O)Nc1ccccc1C(F)(F)F)n1nnc2sc3c(c2c1=O)CCCC3 (stereo not drawn) | inactive: -14.7% |
| CCS(=O)(=O)NCC(c1ccco1)N1CCN(c2ccccc2)CC1 (stereo not drawn) | inactive: -2.19% |
